Measured values reported in PubChem BioAssay AID588591 (National Center for Advancing Translational Sciences (NCATS), 2011).
Out of some 390,000 compounds screened, about 4,700 (1.2%) were called active. Roughly 4% stayed inconclusive and do not appear here. Calls follow the shape of the dose curve; as a rule, active = well fitted inhibition curve with a large enough effect; inconclusive = small, poorly fitted or top-dose-only effect, or another doubt; inactive = no such curve, though single readings can be large or run the other way. Only a part is listed here, and it is no random draw.

biological target: DNA polymerase eta (Homo sapiens) (UniProt Q9Y253); experiment: qHTS for Inhibitors of Polymerase Eta; settings: recombinant Pol eta, fluorescent DNA replication assay; series mostly up to 114 µM; activity change, negative = inhibition: at the top concentration
Chain of UniProt Q9Y253 (Q9Y253 whole entry, looked up): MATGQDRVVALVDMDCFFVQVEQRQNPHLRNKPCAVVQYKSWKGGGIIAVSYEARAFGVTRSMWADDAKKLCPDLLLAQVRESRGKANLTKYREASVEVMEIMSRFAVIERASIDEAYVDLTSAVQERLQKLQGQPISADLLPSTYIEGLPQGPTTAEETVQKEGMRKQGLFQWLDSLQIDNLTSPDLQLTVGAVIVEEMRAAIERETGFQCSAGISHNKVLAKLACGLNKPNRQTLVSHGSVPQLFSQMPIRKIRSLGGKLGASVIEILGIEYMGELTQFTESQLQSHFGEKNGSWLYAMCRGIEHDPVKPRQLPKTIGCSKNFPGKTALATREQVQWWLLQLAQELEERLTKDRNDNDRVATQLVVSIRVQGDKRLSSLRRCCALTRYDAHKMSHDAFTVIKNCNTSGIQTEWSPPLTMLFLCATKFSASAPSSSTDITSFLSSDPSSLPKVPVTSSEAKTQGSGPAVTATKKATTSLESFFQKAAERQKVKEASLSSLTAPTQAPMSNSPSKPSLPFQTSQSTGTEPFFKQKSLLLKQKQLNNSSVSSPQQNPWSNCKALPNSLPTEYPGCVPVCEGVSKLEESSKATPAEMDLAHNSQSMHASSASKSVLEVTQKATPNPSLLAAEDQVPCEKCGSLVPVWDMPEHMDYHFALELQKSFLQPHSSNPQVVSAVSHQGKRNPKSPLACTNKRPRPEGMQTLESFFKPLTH
Outline: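 Pol eta at 10 nM preincubated with compounds 15 min at room temperature; reaction started with fluorescent substrate (50 nM final) and read kinetically at 0 and 10 min.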
% is scaled to controls: 0 for no effect and ±100 for the full control effect; potency is read from the fitted curve at half-maximal effect.

Activity change, negative = inhibition, inactive:
Cc1ccc(S(=O)(=O)Nc2cccc3ncccc23)cc1 39.5%, CC(=O)C1C(c2cccc(F)c2)c2c(n[nH]c2C)CC1(C)O (stereo unspecified) 32.8%, COC(=O)c1ccc(C2NC(=O)c3c(sc(C)c3C)N2)cc1 (stereo unspecified) 35.2%, CC[C@@H]1Cc2cc(O)ccc2C2=C1c1ccc(O)cc1C[C@H]2CC -9.3% [at 57.1 µM], S=c1[nH]nc(-c2ccncc2)n1/N=C/c1cccc(Cl)c1 30.1%, c1cncc(-c2nc(N3CCOCC3)c3ccccc3n2)c1 32.7%, Cc1c(CCOC(=O)C2C3CC4CC(C3)CC2C4)sc[n+]1CC(=O)c1ccc(Br)cc1 (stereo unspecified) -18.8%, CCN(CC)C(=O)COc1ccc(N(C)S(=O)(=O)c2ccc(NC(C)=O)cc2)cc1 33.8%, C[C@]12C(=O)N(c3ccccc3)C(=O)N1[C@@H]1c3ccccc3OC[C@@H]1[C@H]2c1ccccc1 -11.2%, CC1=CC(=O)c2ccccc2C1=O -11%, O=C1NC(=Nc2ccccc2)S/C1=C/c1cccs1 6.19%, O=c1[nH]c(/C=C\c2cccnc2)c([N+](=O)[O-])c(=O)[nH]1 -5.23%, CCN1C(=O)/C(=C/c2nc3ccccc3c(=O)n2-c2ccccc2)c2ccccc21 -16.5%, O=C(Nc1ccc(Cl)cc1F)c1cc(S(=O)(=O)NCc2ccc3c(c2)OCO3)ccc1F 16.3%, COc1ccc(-c2cc(-c3ccccc3)nc(=O)[nH]2)cc1 47.2%, CCCN1C(=O)C2C(C(=O)Nc3cccc(OC)c3)C3C=CC2(O3)C1C(=O)NC1CCCCC1 (stereo unspecified) 1.36%, CCOc1ccc(NC(=O)CCn2nc(C)c(S(=O)(=O)N3CCCCC3)c2C)cc1 -18.5%

Potency, active:
CCOc1ccccc1N1CC(C(=O)N(CC)C2CCS(=O)(=O)C2)CC1=O (stereo unspecified) 50.1 µM, Cc1cc(=O)[nH]c(SCC(=O)c2ccc(O)c(O)c2)n1 17.8 µM, O=C1NC(=S)/C(=C\c2ccc(-c3ccccc3Cl)o2)S1 15.8 µM, COc1ccccc1NS(=O)(=O)c1cccc(-n2c(O)c(C=Nc3ccccc3C(=O)O)c3ccccc3c2=O)c1 20 µM, O=C(O)COc1cccc(NC(=O)c2ccccc2)c1 79.4 µM, O=C1ON=C(c2ccccc2)/C1=C/c1ccc(-c2ccccc2[N+](=O)[O-])o1 22.4 µM, O=C1C(F)=CC(COC(c2ccccc2)(c2ccccc2)c2ccccc2)OC1n1cc(F)c(=O)[nH]c1=O (stereo unspecified) 50.1 µM, Cn1c(-n2cccc2)c(-c2c(-c3ccccc3)[nH]c3c2c(=O)[nH]c(=O)n3C)c(=O)[nH]c1=O 79.4 µM, COC(=O)CCC(=O)OC1(C)C(=O)C=C2C=C(C3CC3)N(CCCOC(C)C)C=C2C1=O (stereo unspecified) 89.1 µM
